Drawing on paper PMC5582858, “The yeast kinesin-5 Cin8 interacts with the microtubule in a noncanonical manner” (The Journal of Biological Chemistry, 2017), this text covers Kd for one molecule.

In assay [1] the target is T1, Cin8-trx (Cin8 motor domain, residues 70–535, fused to N-terminal thioredoxin (TrxA), His6, TEV cleavage and … (S. cerevisiae, UniProt P27895 70-535)).
T1 construct: Kinesin-5 Cin8, S. cerevisiae, motor domain, residues 70–535; Expected mass 67.3 kDa; source: E. coli B834(DE3) with pRILP, purified (SP-Sepharose, nickel-nitrilotriacetic acid, Sephadex G-25); not shown: thioredoxin (TrxA), N-terminal, kept; His6, N-terminal, kept; TEV cleavage tag, N-terminal, kept; Arg9, N-terminal, kept
T1 sequence (looked up): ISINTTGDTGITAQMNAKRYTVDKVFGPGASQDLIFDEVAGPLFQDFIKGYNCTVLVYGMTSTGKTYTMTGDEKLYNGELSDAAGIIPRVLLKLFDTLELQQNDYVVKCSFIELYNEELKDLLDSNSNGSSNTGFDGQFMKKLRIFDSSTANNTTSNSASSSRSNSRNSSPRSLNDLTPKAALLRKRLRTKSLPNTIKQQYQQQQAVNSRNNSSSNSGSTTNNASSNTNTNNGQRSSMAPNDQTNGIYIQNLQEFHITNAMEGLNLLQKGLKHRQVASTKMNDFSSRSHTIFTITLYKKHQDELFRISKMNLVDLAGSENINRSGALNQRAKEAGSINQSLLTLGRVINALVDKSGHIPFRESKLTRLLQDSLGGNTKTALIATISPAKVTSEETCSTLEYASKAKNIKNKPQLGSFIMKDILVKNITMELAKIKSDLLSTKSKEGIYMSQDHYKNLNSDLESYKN
Put plainly: co-sedimentation; 2 μM kinesin, 0–4 μM paclitaxel-stabilised microtubules, no added nucleotide, high ionic strength (88 mM; ATPase buffer with 75 mM KCl), 298 K, 100,000 × g 30 min; supernatant and pellet by SDS-PAGE; apparent constants, fit to Equation 3. The settings on record: both partners purified.

The target of assay [2] is T1, Cin8-trx (Cin8 motor domain, residues …). Put plainly: co-sedimentation; 2 μM kinesin, 0–4 μM paclitaxel-stabilised microtubules, no added nucleotide, low ionic strength (21 mM; ATPase buffer with 7.5 mM KCl), 298 K, 100,000 × g 30 min; supernatant and pellet by SDS-PAGE; apparent constants, fit to Equation 3. The settings on record: both partners purified.

B1: Subtilisin-treated microtubules (lacking the C-terminal tails of α- and β-tubulin) (complex)
chain 1: [in this place about 450 residues]
chain 2: MREIVHIQAGQCGNQIGAKFWEVISDEHGIDPTGSYHGDSDLQLERINVYYNEATGNKYVPRAILVDLEPGTMDSVRSGPFGQIFRPDNFVFGQSGAGNNWAKGHYTEGAELVDSVLDVVRKESESCDCLQGFQLTHSLGGGTGSGMGTLLISKIREEYPDRIMNTFSVMPSPKVSDTVVEPYNATLSVHQLVENTDETYCIDNEALYDICFRTLKLTTPTYGDLNHLVSATMSGVTTCLRFPGQLNADLRKLAVNMVPFPRLHFFMPGFAPLTSRGSQQYRALTVPELTQQMFDSKNMMAACDPRHGRYLTVAAIFRGRMSMKEVDEQMLNVQNKNSSYFVEWIPNNVKTAVCDIPPRGLKMSATFIGNSTAIQELFKRISEQFTAMFRRKAFLHWYTGEGMDEMEFTEAESNMNDLVSEYQQYQDATADEQ
modifications: Purified bovine brain tubulin is an isotype mixture; the representative isotypes alpha-1B and beta-2B are assumed, as the paper states none. Cleavage limits are not given; the conventional major …
For the molecule B1, the Kd in assay [1] was 80 ± 40 nM; in assay [2] it was 70 ± 30 nM.
